Test results taken from PMC6919601, “Identification of Plasmodium dipeptidyl aminopeptidase allosteric inhibitors by high throughput screening” (PLoS ONE, 2019).
The campaign covered roughly 110,000 compounds. About 230 (0.21%) showed an effect of 50% or more. The list shows a part of the results.

Target: DPAP1 (Plasmodium falciparum, UniProt Q8IIJ9)
Assay: primary screen, percent inhibition; read by cleavage of a fluorogenic dipeptide substrate; higher = more effect of the substance
Design: species or system P. falciparum D10 trophozoite lysates; single well
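Further: 30 min substrate incubation versus DMSO and 10 µM JCP410 controls.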

Chain of DPAP1 (Q8IIJ9 whole entry, looked up): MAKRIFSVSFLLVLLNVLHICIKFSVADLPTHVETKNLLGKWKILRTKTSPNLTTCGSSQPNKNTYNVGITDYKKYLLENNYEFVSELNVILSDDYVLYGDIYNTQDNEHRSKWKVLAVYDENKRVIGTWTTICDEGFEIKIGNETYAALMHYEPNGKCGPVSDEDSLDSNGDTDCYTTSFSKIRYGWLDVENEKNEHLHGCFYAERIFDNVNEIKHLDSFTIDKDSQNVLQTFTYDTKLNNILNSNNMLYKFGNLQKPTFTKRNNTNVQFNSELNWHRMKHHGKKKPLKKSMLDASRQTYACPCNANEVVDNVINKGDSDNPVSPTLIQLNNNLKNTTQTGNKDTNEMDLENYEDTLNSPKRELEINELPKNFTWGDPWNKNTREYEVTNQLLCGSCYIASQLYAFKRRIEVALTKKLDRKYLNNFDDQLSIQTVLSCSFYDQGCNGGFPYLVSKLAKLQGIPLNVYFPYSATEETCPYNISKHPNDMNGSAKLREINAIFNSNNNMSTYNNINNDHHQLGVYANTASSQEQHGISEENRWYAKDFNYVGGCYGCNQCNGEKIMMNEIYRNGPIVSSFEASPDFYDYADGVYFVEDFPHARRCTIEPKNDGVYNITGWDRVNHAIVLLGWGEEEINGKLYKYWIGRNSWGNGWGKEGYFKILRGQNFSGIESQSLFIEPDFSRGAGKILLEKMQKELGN

Structure (SMILES)	% Inhibition @ 10 uM [%]
CCOCCCNCc1c(C(=O)O)n(Cc2ccc(F)cc2Cl)c2cc(OC)ccc12	9.28
CCOCCOC(=O)c1cccc2c1-c1ccccc1C2=O	1.76
CC(C)Cn1cc(NC(=O)N2CCN(Cc3ccccc3)CC2)c2ccccc2c1=O	5.07
Cc1c(Cl)cccc1NC(=O)CSc1nc2ccc(N)cc2s1	-1.59
FC(F)(F)c1nnc(-c2ccccc2)o1	-2.55
O=c1cc(COc2cccc(Cl)c2Cl)nc2scc(-c3ccccc3)n12	-3.14
COC(=O)C1CC=CCC1C(=O)c1c[nH]c2ccccc12 (stereo not shown)	2.62
O=C(CSc1nc(O)cc(-c2ccccc2)n1)Nc1ccccc1	2.38
O=C1CSC(c2ccccc2)N1C1CCCCC1 (stereo not shown)	-1.84
Cc1ccc(N2C(=O)NC(=O)/C(=C/Nc3ccccc3)C2=O)cc1	5.66
COc1ccc(OC)c(CCNC(=O)c2ccc(CS(=O)(=O)c3c(Cl)cccc3Cl)o2)c1	-3.21
CCOc1ccc(CNCCCSc2nnnn2C)cc1	-4.71
CN(C(=O)c1cc(-c2ccccc2)[nH]n1)C1CCCCC1	0.359
O=C(C1=C(O)C(=O)N(CC2CCCO2)C1c1ccc(F)cc1)c1ccco1 (stereo not shown)	-4.91
COP(=O)(CC(=O)O)c1ccccc1 (stereo not shown)	3.47
CCOC(=O)c1c(C)[nH]c(C)c1S(=O)(=O)N(C)CC(=O)NCc1cc(C)ccc1C	3.12
Cc1cc(NS(=O)(=O)c2ccc(NC(=O)c3ccc(F)cc3)cc2)no1	-0.884
CCN(CC)C(=O)C1CCCN(c2ncnc3c2cnn3-c2ccc(Cl)cc2)C1 (stereo not shown)	-3.2
Cc1ccc(-n2cccc2C=C2C(=O)N(C)C(=O)N(C)C2=O)cc1Cl	-7.15
c1cc(CN2CCC(N3CCCCC3)CC2)co1	-3.5
COc1ccc(CSc2nncn2C)cc1	0.0719
COc1ccccc1C1CC(c2ccc(C)cc2)=NN1C(=O)CCC(=O)O (stereo not shown)	-2.86
N#CC1=C(N)OC2=C(C(=O)CC(c3ccccc3)C2)C1c1ccc(Br)cc1 (stereo not shown)	-4.94
COc1cc(C2C(C(N)=O)=C(C)Nc3ncnn32)ccc1OCC(N)=O (stereo not shown)	4.41
O=C(NCCc1nc2ccccc2[nH]1)c1ccc(-c2ccccc2)cc1	-0.48
Cc1ccc(/C(O)=C/C2=NCCNC2=O)cc1	2.4
Cc1occc1-c1nnc2sc(-c3ccc(-c4ccccc4Cl)o3)nn12	3.18
O=C(NCc1cccnc1)C1CCCN(S(=O)(=O)N2CCOCC2)C1 (stereo not shown)	2.81
